± gives the uncertainty stated by the source. The sequences are guide strands of siRNAs; only the seed at positions 2 to 7 varies.
Experiments:
[1] = test system: HeyA8; assay: cell viability relative to lipid-only control; higher = less toxic; settings: concentration: 10 nM; 96 h; Homo sapiens
Protocol: (§1)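 Arrayed screen of 4096 siRNA duplexes, each carrying one of all possible 6mer seeds at guide-strand positions 2-7 in a fixed neutral 19mer scaffold (constant flanks: U at position 1, then ACAUGUAAACCA, plus a 3' AA overhang). The passenger strand is 2'-O-methylated at positions 1-2 so only the guide strand loads into RISC. Duplexes were reverse-transfected at 10 nM with RNAiMAX in triplicate in 384-well plates; viability was read by CellTiter-Glo ATP content 96 h after transfection. Values are % viability normalised to lipid-only wells (HeyA8, H460, M565) or to siNT1 (3LL).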

[2] = test system: H460; assay: as above; settings: concentration: 10 nM; 96 h; Homo sapiens
Protocol: as §1

[3] = test system: M565; assay: as above; settings: concentration: 10 nM; 96 h; Mus musculus
Protocol: as §1

[4] = test system: 3LL; assay: cell viability relative to siNT1 control; HeyA8 human ovarian and H460 human lung cancer; M565 mouse liver and 3LL mouse lung cancer; siNT1 is a non-toxic control siRNA; higher = less toxic; settings: concentration: 10 nM; 96 h; Mus musculus;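 note: Luminescence-based viability of cells reverse transfected in 384-well plates with lipid-complexed siRNAs built on a non-toxic 19mer backbone whose passenger strand carries 2′-O-methyl groups at positions 1 and 2, triplicates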
Protocol: as §1
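Throughout, for cell viability relative to lipid-only control: reverse lipid transfection in 384-well plates, in triplicate, of duplexes on a non-toxic 19mer backbone with passenger strand 2′-O-methylated at positions 1 and 2, luminescence viability read-out.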

Sequence	cell viability [1] [%]	cell viability [2] [%]	cell viability [3] [%]	cell viability [4] [%]
UAUUCGUACAUGUAAACCAAA	98.6 ± 15	62.2 ± 2.3	110 ± 12	88.5 ± 21
UACAUAAACAUGUAAACCAAA	94.4 ± 7.7	99.1 ± 14	79.2 ± 8.8	97.5 ± 11
UAUCUCAACAUGUAAACCAAA	83.3 ± 3.9	34.2 ± 2.5	95.4 ± 22	100 ± 4.9
UACCGGCACAUGUAAACCAAA	19.2 ± 0.98	39.5 ± 2.8	50.9 ± 4	57.4 ± 6.4
UCAUUGUACAUGUAAACCAAA	49.5 ± 4.4	34.2 ± 0.89	46.6 ± 10	75.1 ± 11
UCAUGCUACAUGUAAACCAAA	8.39 ± 0.69	20.5 ± 1.4	33.9 ± 6	28.3 ± 1.9
UAACGCCACAUGUAAACCAAA	82.1 ± 7.1	62.5 ± 2.2	85.8 ± 8.4	66.1 ± 6.8
UAAGAGGACAUGUAAACCAAA	72.8 ± 1.8	71.9 ± 7.7	46.9 ± 8.5	81.1 ± 6.5
UUUUACCACAUGUAAACCAAA	62.1 ± 18	36.1 ± 2.5	95.3 ± 14	52.7 ± 3.4
UAGGCCGACAUGUAAACCAAA	53 ± 6.7	53.5 ± 7.4	7.61 ± 2.8	74.2 ± 1.9
UUUGUGUACAUGUAAACCAAA	63.6 ± 1.1	73 ± 11	69 ± 5.5	77.7 ± 5.5
UUUAUUUACAUGUAAACCAAA	81.4 ± 7.1	60.4 ± 2.6	84.3 ± 5.6	93 ± 6.8
UCGAACAACAUGUAAACCAAA	84.2 ± 3.4	70.3 ± 23	70.1 ± 5.6	89.3 ± 18
UUCACUUACAUGUAAACCAAA	70.3 ± 4.5	54.1 ± 4.6	93.8 ± 11	88.3 ± 19
UGUGUAAACAUGUAAACCAAA	63.8 ± 3.3	62.6 ± 5.8	56.6 ± 7.6	92.1 ± 3.9
UGCAAACACAUGUAAACCAAA	63.3 ± 4.7	56.6 ± 4.5	91.4 ± 7.3	65.7 ± 11
UAUGCACACAUGUAAACCAAA	50.2 ± 2.3	59.1 ± 10	86.4 ± 8.6	65.6 ± 14
UUCGCGUACAUGUAAACCAAA	90.3 ± 7.4	68.6 ± 4.7	73.7 ± 10	67.5 ± 8.2
UCAACGAACAUGUAAACCAAA	84.4 ± 3.5	62.9 ± 14	65.5 ± 7.6	89.7 ± 19

Sequence	cell viability [1] [%]	cell viability [2] [%]	cell viability [3] [%]	cell viability [4] [%]
UAUUCUUACAUGUAAACCAAA	97.3 ± 13	88.1 ± 2.9	102 ± 5.4	107 ± 15
UCUGGUUACAUGUAAACCAAA	85.9 ± 3	86.5 ± 9.8	59.8 ± 8.2	98.3 ± 16
UUCUAAAACAUGUAAACCAAA	103 ± 9.2	66.4 ± 8.4	89.9 ± 13	98.5 ± 9.1
UUUGUUUACAUGUAAACCAAA	95.1 ± 2.4	84.1 ± 5.3	96.9 ± 5.5	98 ± 3.7
UUGAACCACAUGUAAACCAAA	81 ± 6.2	71 ± 16	61.2 ± 10	54 ± 8.8
UAUUUUUACAUGUAAACCAAA	89.5 ± 14	73.6 ± 4.8	112 ± 28	107 ± 21
UACACGAACAUGUAAACCAAA	79.2 ± 5	81.7 ± 18	59.1 ± 13	85.7 ± 10
UCGCGAGACAUGUAAACCAAA	77.2 ± 1.9	93.1 ± 14	68.3 ± 6.4	101 ± 19
UAGGAUUACAUGUAAACCAAA	58.9 ± 7.8	54.9 ± 11	15.4 ± 2.5	72.6 ± 13
UGUAUCAACAUGUAAACCAAA	82.2 ± 10	85.7 ± 12	78 ± 19	88.4 ± 5.1
UGAAAGUACAUGUAAACCAAA	78.4 ± 7.2	70.6 ± 8.6	14 ± 1.7	86.1 ± 17
UAGUACGACAUGUAAACCAAA	75.2 ± 4.7	60.4 ± 9.1	101 ± 5.7	80.8 ± 14
UCCUCGCACAUGUAAACCAAA	39.2 ± 6	74.6 ± 11	34.8 ± 7.7	64.3 ± 25
UACCAAAACAUGUAAACCAAA	88.3 ± 6.3	52.9 ± 6.4	68.6 ± 5.2	91.1 ± 4.9
UCCAUUGACAUGUAAACCAAA	88.9 ± 3	87.4 ± 5	90.5 ± 8.2	92 ± 21
UAGAAGUACAUGUAAACCAAA	40.8 ± 3.4	46 ± 7.4	59.2 ± 4.5	71.3 ± 5.2
UGCAUUAACAUGUAAACCAAA	80.2 ± 12	76.9 ± 18	75.6 ± 4.1	90.4 ± 9.2
UCACUCCACAUGUAAACCAAA	27 ± 4.6	30 ± 6.8	41.5 ± 2.3	43.4 ± 2.2
UCCGCACACAUGUAAACCAAA	75.4 ± 10	57.6 ± 4.9	59 ± 12	91.4 ± 21

Sequence	cell viability [1] [%]	cell viability [2] [%]	cell viability [3] [%]	cell viability [4] [%]
UCUCCGGACAUGUAAACCAAA	81.9 ± 4.3	43.2 ± 3.3	58.9 ± 14	90.1 ± 12
UGUAUCUACAUGUAAACCAAA	15 ± 0.72	51.4 ± 2.8	65.8 ± 17	78.8 ± 5.8
UCAUGACACAUGUAAACCAAA	28.4 ± 1.6	36 ± 3.2	29.9 ± 2.2	37.4 ± 6.8
UGAGCGGACAUGUAAACCAAA	28.7 ± 11	32.3 ± 1.6	15.1 ± 4.4	53.5 ± 8.9
UCAAGAGACAUGUAAACCAAA	88 ± 5	72.6 ± 9.2	57.3 ± 3.1	93.5 ± 18
UUGCACUACAUGUAAACCAAA	59.66 ± 0.23	53.1 ± 3.8	102 ± 16	30.2 ± 5
UGAGCAAACAUGUAAACCAAA	84.2 ± 4.1	68.6 ± 12	19.2 ± 4.2	70.5 ± 20
UAAGCGGACAUGUAAACCAAA	91.1 ± 6	79.7 ± 18	47 ± 7.1	81.9 ± 8
UGCGUAUACAUGUAAACCAAA	74.4 ± 8.2	76 ± 11	88.1 ± 3.7	90 ± 9.3
UUCCUCUACAUGUAAACCAAA	60.6 ± 4.5	53.2 ± 4.9	44.5 ± 7.6	67.6 ± 11
UCCCCAUACAUGUAAACCAAA	78.5 ± 1.9	76.2 ± 7.5	58.5 ± 28	111 ± 26
UUCGGUAACAUGUAAACCAAA	87.1 ± 12	75.8 ± 14	87.9 ± 6.1	103 ± 14
UAGACCUACAUGUAAACCAAA	59.2 ± 3.8	85 ± 26	48.5 ± 1.9	53.3 ± 1.4
UGACUUCACAUGUAAACCAAA	33.5 ± 1.4	38.8 ± 4.8	75.1 ± 1.5	61.4 ± 15
UCGGGAAACAUGUAAACCAAA	85.2 ± 5.9	64 ± 11	72.4 ± 1.5	92.6 ± 15
UUCCACGACAUGUAAACCAAA	97.2 ± 12	31.7 ± 2.9	58.7 ± 5.9	105 ± 12
UCCGUCGACAUGUAAACCAAA	83.9 ± 7.7	65.1 ± 14	104 ± 25	101 ± 33
UUACUAGACAUGUAAACCAAA	82.5 ± 2.9	69.4 ± 2.1	64 ± 2.9	87.8 ± 7.1
UCGCGGUACAUGUAAACCAAA	23.6 ± 2.8	46 ± 4.5	20.9 ± 1.7	79.5 ± 19

— the supplement of paper PMC6206098
